Measured values as given in PubChem BioAssay AID588855 (National Center for Advancing Translational Sciences (NCATS), 2011).
Screen size: about 410,000 compounds; about 5,000 (1.2%) were called active. Inconclusive means that the source gave no clear call. Such entries were picked first, then a sample of the others. The call rests on the fitted dose curve; in most records, active means well fitted inhibition curve with a large enough effect; inconclusive means small, poorly fitted or top-dose-only effect; inactive means no such curve, though single readings can be large or run the other way. Potencies of inconclusive entries are doubtful fits and often do not repeat.

test: qHTS for Inhibitors of TGF-b; conditions: HepG2 CAGA-GFP TGF-b/SMAD3 reporter, GFP fluorescence, 18 h, TGF-beta stimulated, 500 pg/mL final; series mostly up to 46.1 µM; activity, negative = inhibition: at the top concentration; further: nearly all actives have a fitted effect of over 65% in size
How it was run: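 Per well, imaged GFP fluorescence of HEPG2 CAGA-GFP cells gives the signal; cells get compound, then TGF-beta (500 pg/mL final), 18 h at 37 degrees C; %Activity versus -TGF-beta and +DMSO controls.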
On the % scale 0 is the no-effect control and ±100 the full control effect; potency means the concentration at half of the fitted maximal effect; tags describe the fitted curve by direction and shape.

Row | Structure (SMILES) | Potency | activity, negative = inhibition
1 | CC1(C(=O)NC2CCCCCC2)CCN1C(=O)Cc1ccc(-c2ccccc2)cc1 (stereo not given) | inconclusive: 11.2 µM [inhibitor, partial curve] | 
2 | COc1c(C)cc(Br)cc1C(=O)Nc1cccc(NC(=O)c2ccco2)c1 | inconclusive: 3.55 µM [inhibitor, partial curve, poor fit] | 
3 | NC(Cc1ccc(F)cc1)c1csc(Nc2nncc3ccccc23)n1 (stereo not given) | inconclusive: 35.5 µM [inhibitor, single point] | 
4 | O=C(NNC(=O)c1cc(-c2ccccc2Cl)nc2ccccc12)c1csc(N2CCOCC2)n1 | inconclusive: 35.5 µM [inhibitor, single point] | 
5 | O=C(NCCS(=O)(=O)N1CCN(c2ccccc2F)CC1)c1ccccc1C(F)(F)F | inconclusive: 8.91 µM [inhibitor, partial curve, poor fit] | 
6 | CCc1ccccc1NC(=O)CN(C)C(=O)CSc1nc2cc(Cl)ccc2s1 | inconclusive: 28.2 µM [inhibitor, single point] | 
7 | CCOC(=O)c1ccc2c(c1)sc1nc(-c3ccc(OCC)cc3)cn12 |  | inactive: -1.2%
8 | CCn1c(=S)sc2c(=O)n(CC(=O)Nc3cccc(Cl)c3)c(C)nc21 | inconclusive: 25.1 µM [inhibitor, single point] | 
9 | Cc1ccccc1Cn1c(=O)n(CC2CCC(C(=O)N3CCC(C)CC3)CC2)c(=O)c2sccc21 (stereo not given) | inconclusive: 35.5 µM [inhibitor, single point] | 
10 | COc1ccccc1CNC(=O)CCCn1c(=O)c2ccccc2n(CC(=O)Nc2ccc(C)cc2Cl)c1=O | inconclusive: 5.62 µM [inhibitor, single point] | 
11 | COC(=O)CC1=NN(c2ccc(OC)cc2)C(=O)/C1=C\c1ccc(Cl)cc1 |  | inactive: -16.8%
12 | Cc1cc(NC(=O)C(C)SCC(=O)OCC(=O)N(C)c2ccccc2)no1 (stereo not given) |  | inactive: 16.8%
13 | CC(C)Cc1nn2c(=O)cc(COC(=O)c3cccc(NC(=O)c4cccs4)c3)nc2s1 |  | inactive: -0.391%
14 | O=C1C2C(c3ccccc3)CC=CC2C(c2ccoc2)N1Cc1ccccc1 (stereo not given) | inconclusive: 25.1 µM [inhibitor, single point] | 
15 | CCN(Cc1ccccc1)c1ccc(/C=N/NS(=O)(=O)c2ccc(C)c([N+](=O)[O-])c2)cc1 | inconclusive: 8.91 µM [inhibitor, partial curve, poor fit] | 
16 | COc1ccc(-c2nsc(NC(=O)COc3ccccc3OC)n2)cc1 |  | inactive: -5.51%
17 | CSCC[C@H](NC(=O)OC(C)(C)C)C(=O)NCC1CCC(C(=O)O)CC1 (stereo not given in full) |  | inactive: 3.98%
18 | CCc1[nH]nc(C(=O)N2CCCC(N3CCN(c4ccccc4C)CC3)C2)c1C (stereo not given) | inconclusive: 20 µM [inhibitor, single point] | 
19 | COc1ccc(CCN2C(=O)CC(C(C)c3ccccc3)C2=O)cc1OC (stereo not given) |  | inactive: -7.56%
20 | CCCCn1c(N)c(N(CCOC)C(=O)c2ccc(Br)s2)c(=O)[nH]c1=O | inconclusive: 5.62 µM [inhibitor, single point] | 
21 | COc1ccc(NC(=O)c2cc3c(=O)n(Cc4cccs4)ccc3nc2C)c(OC)c1 | inconclusive: 35.5 µM [inhibitor, single point] | 
22 | Cc1ccc(S(=O)(=O)Nc2cc(Br)cc3cccnc23)cc1 | inconclusive: 2.51 µM [inhibitor, full curve, poor fit] | 

Row | Structure (SMILES) | Potency | activity, negative = inhibition
23 | CC(C)c1cccc(C2=CC(=O)C[C@H](c3ccc4c(c3)OCO4)C2)c1 | inconclusive: 35.5 µM [inhibitor, single point] | 
24 | COc1ccc(-c2[nH]ncc2/C=C(/C#N)C(=O)NC2CCCCC2)cc1 | inconclusive: 15.8 µM [inhibitor, single point] | 
25 | O=C(NC(=S)Nc1cccc(F)c1)c1cccc([N+](=O)[O-])c1 |  | inactive: -25.2%
26 | Cc1cc(C(=O)CSc2nc3ccccc3n2CCC#N)c(C)n1Cc1cccs1 | inconclusive: 8.91 µM [inhibitor, partial curve, poor fit] | 
27 | O=C(N/C(=C/c1ccc(Cl)cc1)c1nc2ccccc2[nH]1)c1ccco1 | inconclusive: 2.82 µM [inhibitor, full curve] | 
28 | COc1ccc(-n2nnnc2CNC(=O)c2ccc3c(c2)OCO3)cc1 | inconclusive: 0.112 µM [inhibitor, full curve, poor fit] | 
29 | Cc1cc(OCC(=O)NNC(=S)NCC2CCCO2)cc(C)c1Cl (stereo not given) |  | inactive: 0%
30 | O=C(CC1C(=O)NCCN1Cc1cccc(C(F)(F)F)c1)NC1CCCCCC1 (stereo not given) |  | inactive: 4.97%
31 | COc1cccc(C(=O)OCC(=O)N2CCc3ccccc3C2)c1 |  | inactive: 0.723%
32 | CCCN1C2CCCC1CC(NC(=O)c1cc(OC)cc(OC)c1)C2 (stereo not given) | inconclusive: 12.6 µM [inhibitor, single point] | 
33 | CCOc1ccc(NC(=O)CC2Nc3cccc4cccc(c34)NC2=O)cc1 (stereo not given) | inconclusive: 17.8 µM [inhibitor, single point] | 
34 | COc1cc(/C=C2\SC(=O)N(c3ccccc3Cl)C2=O)cc([N+](=O)[O-])c1O |  | inactive: -18.8%
35 | CC(C)c1cccc(C(C)C)c1NC(=O)CNCc1ccccc1F | inconclusive: 12.6 µM [inhibitor, single point] | 
36 | Cn1c2ccccc2c(=O)c2cc(C#CC3=CCCCC3)ccc21 | inconclusive: 12.6 µM [inhibitor, single point] | 
37 | CC1=C(c2ccc(C)c(C)c2)S(=O)(=O)N=C1N1CCN(c2cccc(C)c2)C(C)C1 (stereo not given) | inconclusive: 0.501 µM [inhibitor, full curve, poor fit] | 
38 | Cc1c(Cl)cccc1NC(=O)c1cc(-c2cccs2)on1 |  | inactive: -4.65%
39 | CCOC(=O)c1c(C)[nH]c(C)c1S(=O)(=O)N(C)CC(=O)Nc1cccc(Cl)c1C | inconclusive: 7.94 µM [inhibitor, partial curve, poor fit] | 
40 | COCCN1CN(S(=O)(=O)c2ccc(Cl)cc2)c2nc3ccccc3nc21 | inconclusive: 1.12 µM [inhibitor, full curve, poor fit] | 
41 | Cc1ccc(-n2ncc(C(=O)NCc3ccc4c(c3)OCO4)c2C2CCN(C(=O)OC(C)(C)C)CC2)cc1C | inconclusive: 0.112 µM [inhibitor, full curve, poor fit] | 
42 | COc1ccc(CN2CCCN(CC(=O)Nc3ccc(Br)cc3F)S2(=O)=O)cc1 | inconclusive: 12.6 µM [inhibitor, single point] | 
43 | Cc1ccc(CCC(=O)Nc2ncc(Cc3cccc(Cl)c3Cl)s2)o1 | inconclusive: 0.112 µM [inhibitor, full curve, poor fit] | 
44 | CNc1nc(N/N=C/c2cc3c(cc2[N+](=O)[O-])OCO3)nc(Nc2ccccc2)n1 | inconclusive: 14.1 µM [inhibitor, single point] | 

Row | Structure (SMILES) | Potency | activity, negative = inhibition
45 | CCCCn1c(CCc2ccccc2)nc2cc3[nH]c(=O)c(C(C)C)nc3cc21 | inconclusive: 12.6 µM [inhibitor, single point] | 
46 | Cc1nn(-c2ccccc2)c2c1CC(=O)Nc1ccccc1-2 | inconclusive: 3.98 µM [inhibitor, single point] | 
47 | CCN(C(=O)CSc1n[nH]c(N)n1)c1cccc2ccccc12 |  | inactive: -0.94%
48 | COc1ccc(N(CC(=O)Nc2ccccc2C(F)(F)F)C2=NC3CS(=O)(=O)CC3S2)cc1 (stereo not given) |  | inactive: -1.77%
49 | COc1cc(/C=C2\SC(=O)N(Cc3ccc(F)cc3)C2=O)cc([N+](=O)[O-])c1O | inconclusive: 22.4 µM [inhibitor, single point] | 
50 | Oc1ccc(O)c(Cc2nc3ccccc3s2)c1 | inconclusive: 22.4 µM [inhibitor, single point] | 
51 | C=C1C(=O)O[C@@H]2[C@H]1CC[C@H](C)[C@]1(O)CCC(=O)[C@@]21C | inconclusive: 35.5 µM [inhibitor, single point] | 
52 | COC(=O)c1nc(-c2ccccc2)n[nH]1 | inconclusive: 0.112 µM [inhibitor, full curve, poor fit] | 
53 | CC(=O)c1cccc(NC(=O)c2ccc([N+](=O)[O-])o2)c1 | inconclusive: 17.8 µM [inhibitor, single point] | 
54 | Nc1ncnc2c1ncn2CCN1CCCCC1 | inconclusive: 0.794 µM [inhibitor, full curve, poor fit] | 
55 | COC(=O)c1ccc(C2c3c(-c4ccc(Br)cc4)n[nH]c3C(=O)N2c2ccc(Cl)cc2)cc1 (stereo not given) | inconclusive: 11.2 µM [inhibitor, partial curve, poor fit] | 
56 | Cc1cccc(NC(=O)CSc2ncc3c(n2)-c2cc(Cl)ccc2N(C)S3(=O)=O)c1C |  | inactive: -16%
57 | CC(C)c1ccc(Nc2cc(C(=O)NCCCN(C)Cc3ccccc3)c3ccccc3n2)cc1 |  | inactive: -9.78%
58 | CC(=O)N1CCc2c(sc(NC(=O)C3CC3)c2-c2nc3ccccc3s2)C1 | inconclusive: 35.5 µM [inhibitor, single point] | 
59 | COc1ccccc1[C@H]1C(c2ccccc2)=NN(c2ccccc2)[C@@H]1CO | inconclusive: 35.5 µM [inhibitor, single point] | 
60 | C=CCc1cccc(CNc2nc3ccccc3n2C)c1O | inconclusive: 12.6 µM [inhibitor, partial curve, poor fit] | 
61 | COC(=O)c1sc(NC(=O)c2ccc(Cn3cc(Cl)cn3)o2)c(C#N)c1C |  | inactive: -8.03%
62 | Cc1ccc(NC(=O)CSc2nnc3ccccn23)cc1 |  | inactive: -4.91%
63 | Cc1ccc(NCc2nnc(SCC(=O)c3ccc4c(c3)OCCO4)o2)c(C)c1 | inconclusive: 22.4 µM [inhibitor, single point] | 
64 | O=C(NCc1ccc(OC(F)(F)F)cc1)c1cccc2c1C(=O)c1ccc(N3CCCC3)cc1S2(=O)=O |  | inactive: -2.81%
65 | O=C(NN1C(=O)C2C3C=CC(C3)C2C1=O)c1ccccc1 (stereo not given) | inconclusive: 35.5 µM [inhibitor, single point] | 
